Assay results as given in patent publication US20260176310A1 (NAVIGO PROTEINS, published 2026).

Tests used:
[1] = biological target: T1, hFAP-Fc (human, UniProt Q12884 26-760); assay: ELISA on coated hFAP-Fc; Affilin in human serum, 0 h
T1 construct: extracellular domain; Made in house in Expi293-F cells; also called hFAP-Fc-His; human FAP; not shown: IgG1-Fc
T1 sequence (looked up): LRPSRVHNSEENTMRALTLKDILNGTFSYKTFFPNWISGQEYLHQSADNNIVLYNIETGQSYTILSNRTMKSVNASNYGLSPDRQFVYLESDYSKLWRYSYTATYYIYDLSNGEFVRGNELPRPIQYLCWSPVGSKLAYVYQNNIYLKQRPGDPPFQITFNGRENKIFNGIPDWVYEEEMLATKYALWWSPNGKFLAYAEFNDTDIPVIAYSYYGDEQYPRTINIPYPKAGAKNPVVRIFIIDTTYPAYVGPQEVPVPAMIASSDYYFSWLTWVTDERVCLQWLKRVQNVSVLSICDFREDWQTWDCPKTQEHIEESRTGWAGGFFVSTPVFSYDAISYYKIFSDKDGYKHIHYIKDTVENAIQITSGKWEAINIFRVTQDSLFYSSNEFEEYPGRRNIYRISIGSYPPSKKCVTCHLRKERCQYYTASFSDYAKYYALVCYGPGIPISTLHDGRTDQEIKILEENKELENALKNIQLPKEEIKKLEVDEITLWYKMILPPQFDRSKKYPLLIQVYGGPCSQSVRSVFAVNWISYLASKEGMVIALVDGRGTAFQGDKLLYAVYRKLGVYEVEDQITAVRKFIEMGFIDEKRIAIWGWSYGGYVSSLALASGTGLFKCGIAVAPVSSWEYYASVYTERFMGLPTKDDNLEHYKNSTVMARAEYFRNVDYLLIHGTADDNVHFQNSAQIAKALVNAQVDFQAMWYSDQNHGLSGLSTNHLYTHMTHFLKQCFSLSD
Method: (§1) High binding plates (Greiner, 781061) were immobilized with 2.5 μg/ml hFAP-Fc over night at 4° C. Dilution series of 3 µM to 0.07 PM of Affilin® proteins were incubated in 100% human serum or 100% mouse serum for 24 h at 37° C.
(§2) ELISA-plates were washed three times with PBST (PBS+ 0.1% Tween) and blocked with 3% BSA/0.5% Tween/PBS 1 h at rt. After preincubation for 0 h or 24 h in the presence of serum the dilution series were incubated on ELISA-plates for 30 min at room temperature (rt). Wells were washed with PBST and incubated with biotinylated anti-ubiquitin-antibody (1:300) for 30 min at rt. The binding was visualized with Streptavidin-HRP (1:5.000). […] ELISA analysis confirmed the high stability of FAP binding proteins in serum.

[2] = biological target: T1, hFAP-Fc; assay: ELISA on coated hFAP-Fc; Affilin in human serum, 24 h at 37° C.
Method: as §1, §2

[3] = biological target: T2, hCD26 expressed on HEK293-hCD26 cells (human, UniProt P27487 1-766); assay: flow cytometry on HEK293-hCD26 cells
T2 construct: whole, on cells

[4] = biological target: T1, hFAP-Fc; assay: ELISA on coated hFAP-Fc; Affilin in mouse serum, 0 h
Method: as §1, §2

[5] = biological target: T1, hFAP-Fc; assay: ELISA on coated hFAP-Fc; Affilin in mouse serum, 24 h at 37° C.
Method: as §1, §2

[6] = biological target: T1, hFAP-Fc; assay: ELISA on coated hFAP-Fc (2.5 µg/ml); Affilin dilution series preincubated 24 h at 37 °C in 100% human serum; detection with biotinylated anti-ubiquitin antibody and Streptavidin-HRP
Method: as §1, §2

T2 sequence (P27487 whole entry): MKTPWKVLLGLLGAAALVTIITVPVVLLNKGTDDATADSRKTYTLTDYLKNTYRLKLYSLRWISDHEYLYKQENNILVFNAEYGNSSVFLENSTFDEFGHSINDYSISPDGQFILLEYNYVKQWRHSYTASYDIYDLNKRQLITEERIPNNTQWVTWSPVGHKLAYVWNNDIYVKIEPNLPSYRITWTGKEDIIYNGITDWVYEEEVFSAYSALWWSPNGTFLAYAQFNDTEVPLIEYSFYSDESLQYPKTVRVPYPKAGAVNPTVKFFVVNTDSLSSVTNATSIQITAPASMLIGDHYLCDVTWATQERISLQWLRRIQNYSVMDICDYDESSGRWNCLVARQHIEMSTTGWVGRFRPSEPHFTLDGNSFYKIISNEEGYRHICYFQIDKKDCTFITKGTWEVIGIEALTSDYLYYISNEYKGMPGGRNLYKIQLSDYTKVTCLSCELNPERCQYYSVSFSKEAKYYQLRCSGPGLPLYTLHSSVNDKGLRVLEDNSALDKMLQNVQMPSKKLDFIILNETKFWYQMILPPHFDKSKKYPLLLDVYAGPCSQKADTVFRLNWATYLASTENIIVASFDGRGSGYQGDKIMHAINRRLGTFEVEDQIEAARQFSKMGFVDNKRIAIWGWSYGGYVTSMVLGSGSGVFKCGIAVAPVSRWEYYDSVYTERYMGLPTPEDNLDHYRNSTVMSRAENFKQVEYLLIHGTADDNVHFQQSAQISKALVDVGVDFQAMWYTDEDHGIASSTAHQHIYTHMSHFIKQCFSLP

Binder	Kd [1] [nM]	Kd [2] [nM]	binding result [3]	Kd [4] [nM]	Kd [5] [nM]	Kd [6] [nM]
Affilin®-217990 (designed binder, Ubiquitin mutein) MQIFVKTLTPEWHIIGKTITLEVEPSDTIENVKAKIQDKEGIPPDQQNLAWAGKQLEDGRTLSDYNIQGGSMLMLKLHLRAA	1.2	1.2	no binding (tested: 1 µM, 100 nM, 10 nM, or 1 nM)	0.7	1.1	1.18
Affilin®-220164 (designed binder, Ubiquitin mutein) MQIFVWTDDWKRITLEVEPSDTIENVKAKIQDKEGIPPDQQVLAWRGKQLEDGRTLSDYNIMVWPNLWLRLRAA	0.6	0.8	no binding (tested: 1 µM, 100 nM, 10 nM, or 1 nM)	2.1	2	0.74
Affilin®-217863 (designed binder, Ubiquitin mutein) MQIFVWTEMHKRITLEVEPSDTIENVKAKIQDKEGIPPDQQHLTWKGKQLEDGRTLSDYNISEWPNLFLRLNLRAA			no binding (tested: 1 µM, 100 nM, 10 nM, or 1 nM)			
Affilin®-220257 (designed binder, Ubiquitin mutein) MQIFVWTITGKPITLEVEPSDTIENVKAKIQDKEGIPPDQQRLIWAGKQLEDGRTLSDYNIRSWPNLHLVLRLRAGMQIVVHTATGKTITLEVEPSDTIGHVKAKIQDTEGIPPDQQRLIWAGKQLEDGRTLSDYNIEDFPPLHLVLRLRAA	0.3	0.4	no binding (tested: 1 µM, 100 nM, 10 nM, or 1 nM)	0.2	0.4	0.38
